The source of these data is PubChem BioAssay (NCI).

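Cells were grown in 96-well plates and exposed to each compound for 48 hours at five concentrations; endpoints were interpolated linearly between bracketing concentrations, or set to the highest concentration if not reached. GI50: concentration for 50% inhibition of growth. TGI denotes the concentration required for complete inhibition of growth.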 Bounds are passed on as bounds.

This assay relates to NCI-H322M lung. Briefly: DTP human tumour cell line panel, 48 h.
Turning to `COc1ccc2[nH]cc(-c3nc(N)nnc3-c3cn(C)c4ncc(Br)cc34)c2c1`, the GI50 – broadly, the concentration giving 50% growth inhibition – is 684 nM and the concentration for total growth inhibition (TGI) (commonly the concentration giving total growth inhibition) was over 100000 nM.

Take `O=C(CNc1nc(-c2ccccc2)cs1)Nc1ccc(Br)cc1`: the GI50 was 1480 nM and the TGI is 2810 nM.

In the case of `CC1=C(C(=O)Nc2ccccc2)C(c2ccc3ccccc3c2)n2c(nc3ccccc32)N1` (stereo not given), the GI50 was 23200 nM and the total growth inhibition concentration (TGI) is 67100 nM.

With `O=C(c1ccc(O)cc1)C1[C@H](c2ccc(Br)cc2)[C@@H](c2ccccc2)NC12C(=O)Nc1ccc(Br)cc12` (stereo not given in full), the GI50 was 4200 nM and the TGI was determined as 8490 nM.

Consider `Clc1ccc2c(N/N=C/c3c[nH]c4ccc(Br)cc34)ccnc2c1`, for which the GI50 was 1570 nM and the TGI is 2920 nM.
